According to PubChem BioAssay AID1745853 (National Center for Advancing Translational Sciences (NCATS), 2022):
“And” between values parts separate entries of the source, which are not always exact repeats. Equal entries are not always repeated. The list shows a part of the results. These are further read-outs of the screen, such as a control signal, another cell line or another target. No call is given for them.

Key:
Assay in all cases: Primary Screen for Target Class Profiling of Small Molecule Inhibitors of Methyltransferases
[1] = molecular target: Glycine N-methyltransferase (Homo sapiens) (UniProt Q14749); conditions: purified enzyme, MTase-Glo SAH luminescence; measured here: GNMT inhibition; at 40 µM; stronger effect = lower value
Outline: (§1)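 Each enzyme was assayed with SAM and its substrate. SAH formation detected by MTase-Glo luminescence; single-point 40 uM screen[…].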

[2] = molecular target: Guanidinoacetate N-methyltransferase (Homo sapiens) (UniProt Q14353); conditions: purified enzyme, MTase-Glo SAH luminescence; measured here: GAMT inhibition; at 40 µM; stronger effect = lower value
Outline: as §1

[3] = molecular target: Histamine N-methyltransferase (Homo sapiens) (UniProt P50135); conditions: purified enzyme, MTase-Glo SAH luminescence; measured here: HNMT inhibition; at 40 µM; stronger effect = lower value
Outline: as §1

[4] = molecular target: Nicotinamide N-methyltransferase (Homo sapiens) (UniProt P40261); conditions: purified enzyme, MTase-Glo SAH luminescence; measured here: NNMT inhibition; at 40 µM; stronger effect = lower value
Outline: as §1

[5] = molecular target: Phenylethanolamine N-methyltransferase (Homo sapiens) (UniProt P11086); conditions: purified enzyme, MTase-Glo SAH luminescence; measured here: PNMT inhibition; at 40 µM; stronger effect = lower value
Outline: as §1
% is scaled to controls: 0 for no effect and ±100 for the full control effect.

CCCN1C(=O)c2cc(C(=O)N3CCN(Cc4ccccc4)CC3)nn2CC1(C)C(=O)NC1CCCC1 (stereo not given)
activity change, negative = inhibition [1]: 2.36% | activity change, negative = inhibition [2]: 3.07% | activity change, negative = inhibition [3]: 10.3% | activity change, negative = inhibition [4]: 6.51% | activity change, negative = inhibition [5]: 3.69%

CC(=O)O[C@H]1[C@H](O[C@H]2[C@@H]3C=CO[C@@H](O[C@@H]4O[C@H](CO)[C@@H](O)[C@H](O)[C@H]4O)[C@@H]3[C@@]3(CO)O[C@@H]23)O[C@@H](C)[C@H](OC(=O)/C=C/c2ccccc2)[C@H]1OC(=O)/C=C/c1ccccc1
activity change, negative = inhibition [1]: 3% | activity change, negative = inhibition [2]: 13.2% | activity change, negative = inhibition [3]: -0.652% | activity change, negative = inhibition [4]: -0.874% | activity change, negative = inhibition [5]: 4.63%

COc1ccccc1N1CCN(CCCNc2cc(=O)n(C)c(=O)n2C)CC1
activity change, negative = inhibition [1]: 5.64% and -1.75% | activity change, negative = inhibition [2]: 6.81% and 3.34% | activity change, negative = inhibition [3]: 9.28% and 0.271% | activity change, negative = inhibition [4]: -11.5% and -11.8% | activity change, negative = inhibition [5]: 6.37% and 4.69%

CCN1C(=O)CCc2cc(NC(=O)c3ccc(F)cc3)ccc21
activity change, negative = inhibition [1]: -9.43% | activity change, negative = inhibition [2]: -14.7% | activity change, negative = inhibition [3]: -10.5% | activity change, negative = inhibition [4]: -17.9% | activity change, negative = inhibition [5]: -35.4%

Cn1c(CO)c(-c2ccccc2)c2cc([N+](=O)[O-])ccc21
activity change, negative = inhibition [1]: -8.84% | activity change, negative = inhibition [2]: -3.38% | activity change, negative = inhibition [3]: -15.9% | activity change, negative = inhibition [4]: -31.5% | activity change, negative = inhibition [5]: -8.85%

O=C(CCc1nnc2n(CCc3ccccc3)c(=O)c3ccccc3n12)N1CCN(c2ccc(F)cc2)CC1
activity change, negative = inhibition [1]: -3.72% | activity change, negative = inhibition [2]: 1.05% | activity change, negative = inhibition [3]: 5.84% | activity change, negative = inhibition [4]: -26% | activity change, negative = inhibition [5]: 0.589%

CN(C)[C@H]1CCN(C(=O)Cc2cn(C)c3ccccc23)C[C@H]1CCC(=O)O
activity change, negative = inhibition [1]: -0.218% | activity change, negative = inhibition [2]: 0.187% | activity change, negative = inhibition [3]: 2.6% | activity change, negative = inhibition [4]: -3.29% | activity change, negative = inhibition [5]: -4.42%

COC(=O)c1ncn2c1C(=O)N(Cc1cccc(OC)c1)C(C)(C(=O)NCc1ccccc1)C2 (stereo not given)
activity change, negative = inhibition [1]: -5.47% | activity change, negative = inhibition [2]: 3.35% | activity change, negative = inhibition [3]: 1.55% | activity change, negative = inhibition [4]: -1.79% | activity change, negative = inhibition [5]: -2.75%

CCN(CC)CCN1C(=O)c2ccc(-c3ccco3)n2CC1(C)C(=O)NC1CCC(C)CC1 (stereo not given)
activity change, negative = inhibition [1]: 5.38% | activity change, negative = inhibition [2]: 0.592% | activity change, negative = inhibition [3]: 3.58% | activity change, negative = inhibition [4]: 3.96% | activity change, negative = inhibition [5]: 0.754%

COc1ccc(CNC(=O)Cn2nc3n(CC(C)C)c(=O)c4ccccc4n3c2=O)cc1
activity change, negative = inhibition [1]: -4.8% | activity change, negative = inhibition [2]: 5.33% | activity change, negative = inhibition [3]: -0.857% | activity change, negative = inhibition [4]: -13% | activity change, negative = inhibition [5]: -9.08%

CC1(C(=O)NC2CCCC2)Cn2c(cc3ccccc32)C(=O)N1Cc1ccccc1F (stereo not given)
activity change, negative = inhibition [1]: -3.92% | activity change, negative = inhibition [2]: 1.45% | activity change, negative = inhibition [3]: -2.59% | activity change, negative = inhibition [4]: -17.7% | activity change, negative = inhibition [5]: -2.49%

C=C(CCC1=C(C)[C@H]2[C@H](CC3[C@@H]4CC=C5C[C@@H](O)C[C@@H](O)[C@]5(C)C4[C@H](O)C[C@@]32C)O1)CO[C@@H]1O[C@H](CO)[C@@H](O)[C@H](O)[C@H]1O (stereo not given in full)
activity change, negative = inhibition [1]: 2.67% | activity change, negative = inhibition [2]: 7.59% | activity change, negative = inhibition [3]: 11.3% | activity change, negative = inhibition [4]: -4.29% | activity change, negative = inhibition [5]: 8.62%

CCc1ccc(CNC(=O)Cn2ccc3cc(S(=O)(=O)N4CCCCC4)ccc32)cc1
activity change, negative = inhibition [1]: -2.02% | activity change, negative = inhibition [2]: 3.83% | activity change, negative = inhibition [3]: 0.255% | activity change, negative = inhibition [4]: -0.594% | activity change, negative = inhibition [5]: -1.1%

CC(C)CNC(=O)c1ccc2c(=O)n(C(C)C)c3nn(Cc4c(F)cccc4Cl)c(=O)n3c2c1
activity change, negative = inhibition [1]: 7.19% | activity change, negative = inhibition [2]: 0% | activity change, negative = inhibition [3]: 8.55% | activity change, negative = inhibition [4]: 7.8% | activity change, negative = inhibition [5]: 5.13%

CC(=O)Nc1cccc(-c2csc(Nc3cc(C)ccn3)n2)c1
activity change, negative = inhibition [1]: -6.57% | activity change, negative = inhibition [2]: 2.69% | activity change, negative = inhibition [3]: -4.24% | activity change, negative = inhibition [4]: -17.4% | activity change, negative = inhibition [5]: -8.71%

C1Cc2[nH]nc(-c3nn[nH]n3)c2C1
activity change, negative = inhibition [1]: 5.86% | activity change, negative = inhibition [2]: 2.01% | activity change, negative = inhibition [3]: 11.2% | activity change, negative = inhibition [4]: -12.6% | activity change, negative = inhibition [5]: 2.06%

CC1CCCCC1NC(=O)C1(C)Cn2c(cc3sccc32)C(=O)N1Cc1ccc(F)cc1 (stereo not given)
activity change, negative = inhibition [1]: 3.98% | activity change, negative = inhibition [2]: -17.1% | activity change, negative = inhibition [3]: 5.71% | activity change, negative = inhibition [4]: -6.74% | activity change, negative = inhibition [5]: -0.728%

CC(C)CNC(=O)c1ccc2c(=O)n(CC(C)C)c3n[nH]c(=O)n3c2c1
activity change, negative = inhibition [1]: -7.82% | activity change, negative = inhibition [2]: 0% | activity change, negative = inhibition [3]: 6.26% | activity change, negative = inhibition [4]: 1.56% | activity change, negative = inhibition [5]: -6.81%

Cc1ccc(CNC(=O)c2cc3n(n2)CC(C)(C(=O)NCc2ccc(C)cc2)N(C)C3=O)cc1 (stereo not given)
activity change, negative = inhibition [1]: 8.76% | activity change, negative = inhibition [2]: 0% | activity change, negative = inhibition [3]: 7.46% | activity change, negative = inhibition [4]: 13.6% | activity change, negative = inhibition [5]: 7.53%

COc1ccc(C(=O)N2CCN(c3nnc4ccccn34)CC2)cc1OC
activity change, negative = inhibition [1]: -6.67% | activity change, negative = inhibition [2]: 1.24% | activity change, negative = inhibition [3]: 0.256% | activity change, negative = inhibition [4]: -2.86% | activity change, negative = inhibition [5]: -0.199%

CCOC(=O)c1cc2n(n1)CC(C)(C(=O)NCc1ccccc1)N(c1ccc3c(c1)OCO3)C2=O (stereo not given)
activity change, negative = inhibition [1]: -5.19% | activity change, negative = inhibition [2]: 1.21% | activity change, negative = inhibition [3]: -3.42% | activity change, negative = inhibition [4]: -7.99% | activity change, negative = inhibition [5]: -7.41%

Cc1nccn1CCC(NC(=O)c1cn(CCN)nn1)c1ccccc1 (stereo not given)
activity change, negative = inhibition [1]: -7.25% | activity change, negative = inhibition [2]: -9.12% | activity change, negative = inhibition [3]: -31.3% | activity change, negative = inhibition [4]: -8.05% | activity change, negative = inhibition [5]: -11%

Oc1cc2c(c(Cl)c1O)CCNCC2c1ccccc1 (stereo not given)
activity change, negative = inhibition [1]: -40.6% | activity change, negative = inhibition [2]: 4.37% | activity change, negative = inhibition [3]: -45.3% | activity change, negative = inhibition [4]: -10.6% | activity change, negative = inhibition [5]: -1.28%

CCc1ccc(N2C(=O)c3cc4sccc4n3CC2(C)C(=O)NC2CCC(C)CC2)cc1 (stereo not given)
activity change, negative = inhibition [1]: 3.83% | activity change, negative = inhibition [2]: 1.81% | activity change, negative = inhibition [3]: 5.52% | activity change, negative = inhibition [4]: 3.25% | activity change, negative = inhibition [5]: -6.17%

Cc1cc(C)nc(SCC(=O)Nc2ncc(Cc3cccc4ccccc34)s2)n1
activity change, negative = inhibition [1]: 1.38% | activity change, negative = inhibition [2]: -4.85% | activity change, negative = inhibition [3]: 10.6% | activity change, negative = inhibition [4]: -26.6% | activity change, negative = inhibition [5]: -2.63%

COC(=O)c1cc(COc2ccc3c(-c4ccccc4)cc(=O)oc3c2)c(C)o1
activity change, negative = inhibition [1]: -2.84% | activity change, negative = inhibition [2]: 1.61% | activity change, negative = inhibition [3]: 2.46% | activity change, negative = inhibition [4]: -1.39% | activity change, negative = inhibition [5]: -5.9%

CC(=O)c1ccc(NC(=O)N[C@H]2CCN3C(=O)[C@@H](Cc4ccccc4)NC(=O)[C@H]23)cc1
activity change, negative = inhibition [1]: -8.12% | activity change, negative = inhibition [2]: -10.3% | activity change, negative = inhibition [3]: -7.34% | activity change, negative = inhibition [4]: -18.9% | activity change, negative = inhibition [5]: -5.55%

c1ccc(Cc2ncc3c(n2)CCNCC3)cc1
activity change, negative = inhibition [1]: 0.988% | activity change, negative = inhibition [2]: -0.181% | activity change, negative = inhibition [3]: -0.16% | activity change, negative = inhibition [4]: -12.9% | activity change, negative = inhibition [5]: -0.983%

CCOC(=O)C(Cc1cccc(N2CCN(C(=O)OC(C)(C)C)CC2)c1)OC (stereo not given)
activity change, negative = inhibition [1]: -7.25% | activity change, negative = inhibition [2]: -7.11% | activity change, negative = inhibition [3]: -3.48% | activity change, negative = inhibition [4]: -18.6% | activity change, negative = inhibition [5]: -26.1%
